# Laboratory results from the supplement of paper PMC8728848.
# Some of the results follow.
# Key:
# Assay in all cases: glycan array binding signal (z-score within array); higher = stronger binding
# Settings in all cases: glycan notation: IUPAC condensed, linker removed
# Gal(b1-3)Gal(b1-4)GlcNAc = biological target: Gal(b1-3)Gal(b1-4)GlcNAc
# In short: (§1)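 Columns mapping to the same glycan were averaged after glycan names were converted to IUPAC-condensed notation. The data come from 3228 arrays in the Consortium for Functional Glycomics database, limited to those with an available protein sequence. Binding is reported as a within-array Z-score averaged across arrays of one protein sequence and across linkers.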
# [1] = biological target: Gal(b1-3)Gal(b1-4)GlcNAc(b1-2)Man(a1-3)[Gal(b1-3)Gal(b1-4)GlcNAc(b1-2)Man(a1-6)]Man(b1-4)GlcNAc(b1-4)GlcNAc
# In short: as §1
# Gal(b1-3)GalNAc = biological target: Gal(b1-3)GalNAc
# In short: as §1
# [2] = biological target: Gal(b1-3)GalNAc(a1-3)[Fuc(a1-2)]Gal(b1-4)Glc
# In short: as §1
# [3] = biological target: Gal(b1-3)GalNAc(a1-3)[Fuc(a1-2)]Gal(b1-4)GlcNAc
# In short: as §1
# [4] = biological target: Gal(b1-3)GalNAc(b1-3)Gal(a1-4)Gal(b1-4)Glc
# In short: as §1
# [5] = biological target: Gal(b1-3)GalNAc(b1-4)Gal(b1-4)Glc
# In short: as §1
# [6] = biological target: Gal(b1-3)GalNAc(b1-4)[Neu5Ac(a2-3)]Gal(b1-4)Glc
# In short: as §1
# Gal(b1-3)GlcNAc = biological target: Gal(b1-3)GlcNAc
# In short: as §1
# [7] = biological target: Gal(b1-3)GlcNAc(a1-6)Gal(b1-4)GlcNAc
# In short: as §1
# [8] = biological target: Gal(b1-3)GlcNAc(b1-2)Man(a1-3)[Gal(b1-3)GlcNAc(b1-2)Man(a1-6)]Man(b1-4)GlcNAc(b1-4)GlcNAc
# In short: as §1
# [9] = biological target: Gal(b1-3)GlcNAc(b1-2)Man(a1-3)[Gal(b1-3)GlcNAc(b1-2)Man(a1-6)]Man(b1-4)GlcNAc(b1-4)[Fuc(a1-6)]GlcNAc
# In short: as §1
# [10] = biological target: Gal(b1-3)GlcNAc(b1-2)[Gal(b1-3)GlcNAc(b1-6)]Man(a1-6)[Gal(b1-3)GlcNAc(b1-2)Man(a1-3)]Man(b1-4)GlcNAc(b1-4)GlcNAc
# In short: as §1
# [11] = biological target: Gal(b1-3)GlcNAc(b1-3)Gal(b1-3)GlcNAc
# In short: as §1
# [12] = biological target: Gal(b1-3)GlcNAc(b1-3)Gal(b1-4)Glc
# In short: as §1
# [13] = biological target: Gal(b1-3)GlcNAc(b1-3)Gal(b1-4)GlcNAc
# In short: as §1
# [14] = biological target: Gal(b1-3)GlcNAc(b1-3)Gal(b1-4)GlcNAc(b1-6)[Gal(b1-3)GlcNAc(b1-3)]Gal(b1-4)Glc
# In short: as §1
# [15] = biological target: Gal(b1-3)GlcNAc(b1-3)Gal(b1-4)[Fuc(a1-3)]GlcNAc(b1-6)[Gal(b1-3)GlcNAc(b1-3)]Gal(b1-4)Glc
# In short: as §1
# [16] = biological target: Gal(b1-3)GlcNAc(b1-3)GalNAc
# In short: as §1
# [17] = biological target: Gal(b1-3)GlcNAc(b1-6)Gal(b1-4)GlcNAc
# In short: as §1
# [18] = biological target: Gal(b1-3)[Fuc(a1-4)]GlcNAc
# In short: as §1
# [19] = biological target: Gal(b1-3)[Fuc(a1-4)]GlcNAc(b1-2)Man(a1-3)[Gal(b1-3)[Fuc(a1-4)]GlcNAc(b1-2)Man(a1-6)]Man(b1-4)GlcNAc(b1-4)GlcNAc
# In short: as §1
# [20] = biological target: Gal(b1-3)[Fuc(a1-4)]GlcNAc(b1-2)Man(a1-3)[Gal(b1-3)[Fuc(a1-4)]GlcNAc(b1-2)Man(a1-6)]Man(b1-4)GlcNAc(b1-4)[Fuc(a1-6)]GlcNAc
# In short: as §1
# [21] = biological target: Gal(b1-3)[Fuc(a1-4)]GlcNAc(b1-3)Gal(b1-3)[Fuc(a1-4)]GlcNAc
# In short: as §1
# [22] = biological target: Gal(b1-3)[Fuc(a1-4)]GlcNAc(b1-3)Gal(b1-4)GlcNAc
# In short: as §1
# [23] = biological target: Gal(b1-3)[Fuc(a1-4)]GlcNAc(b1-3)Gal(b1-4)[Fuc(a1-3)]GlcNAc
# In short: as §1
# [24] = biological target: Gal(b1-3)[GlcNAc(b1-6)]GalNAc
# In short: as §1
# [25] = biological target: Gal(b1-3)[Neu5Ac(a2-6)]GalNAc
# In short: as §1
# [26] = biological target: Gal(b1-3)[Neu5Ac(a2-6)]GlcNAc(b1-6)Gal(b1-4)Glc
# In short: as §1
# [27] = biological target: Gal(b1-3)[Neu5Ac(b2-6)]GalNAc
# In short: as §1
# Gal(b1-4)Gal = biological target: Gal(b1-4)Gal
# In short: as §1
# [28] = biological target: Gal(b1-4)GalNAc(a1-3)[Fuc(a1-2)]Gal(b1-4)GlcNAc
# In short: as §1
# [29] = biological target: Gal(b1-4)GalNAc(b1-3)[Fuc(a1-2)]Gal(b1-4)GlcNAc
# In short: as §1
# Gal(b1-4)Glc = biological target: Gal(b1-4)Glc
# In short: as §1
# Gal(b1-4)Glc6S = biological target: Gal(b1-4)Glc6S
# In short: as §1
# Gal(b1-4)GlcNAc = biological target: Gal(b1-4)GlcNAc
# In short: as §1
# [30] = biological target: Gal(b1-4)GlcNAc(a1-6)Gal(b1-4)GlcNAc
# In short: as §1
# Gal(b1-4)GlcNAc(b1-2)Man = biological target: Gal(b1-4)GlcNAc(b1-2)Man
# In short: as §1
binder,measurement,setting,value
"F17aG (Escherichia coli), Q99003 (protein) MTNFYKVFLAVFILVCCNISQAAVSFIGSTENDVGPSLGSYSRTHAMDNLPFVYDTRNKIGYQNANVWHISKGFCVGLDGKVDLPVVGSLDGQSIYGLTEEVGLLIWMGDTKYSRGTAMSGNSWENVFSGWCVGANTASTQGLSVRVTPVILKRNSSARYSVQKTSIGSIRMRPYNGSSAGSVQTTVNFSLNPFTLNDTVTSCRLLTPSAVNVSLAAISAGQLPSSGDEVVAGTTSLKLQCDAGVTVWATLTDATTPSNRSDILTLTGASTATGVGLRIYKNTDSTPLKFGPDSPVKGNENQWQLSTGTETSPSVRLYVKYVNTGEGINPGTVNGISTFTFSYQ",glycan array binding signal (z-score),Gal(b1-3)Gal(b1-4)GlcNAc,-0.151
same,glycan array binding signal (z-score),[1],-0.05
same,glycan array binding signal (z-score),Gal(b1-3)GalNAc,0.105
same,glycan array binding signal (z-score),[2],-0.154
same,glycan array binding signal (z-score),[3],-0.156
same,glycan array binding signal (z-score),[4],-0.255
same,glycan array binding signal (z-score),[5],-0.246
same,glycan array binding signal (z-score),[6],-0.258
same,glycan array binding signal (z-score),Gal(b1-3)GlcNAc,-0.239
same,glycan array binding signal (z-score),[7],-0.168
same,glycan array binding signal (z-score),[8],-0.144
same,glycan array binding signal (z-score),[9],-0.138
same,glycan array binding signal (z-score),[10],-0.147
same,glycan array binding signal (z-score),[11],-0.134
same,glycan array binding signal (z-score),[12],-0.252
same,glycan array binding signal (z-score),[13],-0.236
same,glycan array binding signal (z-score),[14],-0.122
same,glycan array binding signal (z-score),[15],-0.174
same,glycan array binding signal (z-score),[16],-0.152
same,glycan array binding signal (z-score),[17],-0.148
same,glycan array binding signal (z-score),[18],-0.242
same,glycan array binding signal (z-score),[19],-0.119
same,glycan array binding signal (z-score),[20],0.003
same,glycan array binding signal (z-score),[21],-0.169
same,glycan array binding signal (z-score),[22],-0.242
same,glycan array binding signal (z-score),[23],-0.246
same,glycan array binding signal (z-score),[24],0.284
same,glycan array binding signal (z-score),[25],-0.205
same,glycan array binding signal (z-score),[26],-0.251
same,glycan array binding signal (z-score),[27],-0.243
same,glycan array binding signal (z-score),Gal(b1-4)Gal,-0.179
same,glycan array binding signal (z-score),[28],-0.251
same,glycan array binding signal (z-score),[29],-0.253
same,glycan array binding signal (z-score),Gal(b1-4)Glc,-0.252
same,glycan array binding signal (z-score),Gal(b1-4)Glc6S,-0.243
same,glycan array binding signal (z-score),Gal(b1-4)GlcNAc,-0.14
same,glycan array binding signal (z-score),[30],-0.124
same,glycan array binding signal (z-score),Gal(b1-4)GlcNAc(b1-2)Man,-0.059
